Results: the supplement of paper PMC6531468
This is one part of the list. Values come from read counts of a selection and are noisy. Each score is taken over the longer molecules that contain the sequence shown.

Tests used:
Experiment in all cases: 6-mer SELEX enrichment z-score vs GST control; IMP3 is the RNA-binding protein IGF2BP3; higher = more enriched by binding
[1] = test system: IMP3 KH1-4; details: construct: KH1-4 (164-579); SELEX round: R4
Method: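 SELEX-seq with GST-tagged IMP3 KH1-4 (Pro164-Lys579) and an N40 RNA pool, round 4. 6-mer z-score of sequence-tag enrichment normalised to the corresponding GST SELEX round; RNA k-mers written as DNA (T for U).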

[2] = test system: IMP3 RRM1-2; details: construct: RRM1-2 (1-163); SELEX round: R2
Method: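 SELEX-seq with GST-tagged IMP3 RRM1-2 (Met1-Asn163) and an N40 RNA pool, round 2. 6-mer enrichment z-score normalised to GST SELEX. RNA written as DNA (T = U).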

[3] = molecular target: IMP3 full-length (UniProt O00425); details: construct: FL IMP3 (1-579); SELEX round: R4
Method: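 SELEX-seq with GST-tagged full-length IMP3 and an N40 RNA pool, round 4. Each 6-mer is scored as an enrichment z-score of sequence tags containing it, normalised to the matching GST SELEX round. RNA written as DNA (T = U).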

[4] = test system: IMP3 KH1-2; details: construct: KH1-2 (164-376); SELEX round: R4
Method: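 SELEX-seq with GST-tagged IMP3 KH1-2 (Pro164-Phe376) and an N40 RNA pool, round 4 (stringent 300/600 mM KCl washes). 6-mer z-score of sequence-tag enrichment normalised to the corresponding GST SELEX round; RNA k-mers written as DNA (T for U).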

[5] = test system: IMP3 KH3-4; details: construct: KH3-4 (377-579); SELEX round: R4
Method: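 SELEX-seq with GST-tagged IMP3 KH3-4 (Pro377-Lys579) and an N40 RNA pool, round 4. 6-mer z-score of sequence-tag enrichment normalised to the corresponding GST SELEX round; RNA k-mers written as DNA (T for U).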

Chain of IMP3 KH3-4 (chain, as listed by the source): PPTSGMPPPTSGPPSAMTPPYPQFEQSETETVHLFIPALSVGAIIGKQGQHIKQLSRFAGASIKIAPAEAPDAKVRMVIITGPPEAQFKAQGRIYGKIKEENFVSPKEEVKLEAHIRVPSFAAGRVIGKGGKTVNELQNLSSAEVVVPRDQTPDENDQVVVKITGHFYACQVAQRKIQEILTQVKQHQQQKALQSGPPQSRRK
Chain of IMP3 KH1-2 (chain, as listed by the source): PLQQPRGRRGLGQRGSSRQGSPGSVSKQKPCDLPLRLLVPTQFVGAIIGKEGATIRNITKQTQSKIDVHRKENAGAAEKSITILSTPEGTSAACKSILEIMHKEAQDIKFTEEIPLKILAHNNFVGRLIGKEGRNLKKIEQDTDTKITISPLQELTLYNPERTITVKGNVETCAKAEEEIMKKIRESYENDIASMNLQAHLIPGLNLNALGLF
Chain of IMP3 KH1-4 (chain, as listed by the source): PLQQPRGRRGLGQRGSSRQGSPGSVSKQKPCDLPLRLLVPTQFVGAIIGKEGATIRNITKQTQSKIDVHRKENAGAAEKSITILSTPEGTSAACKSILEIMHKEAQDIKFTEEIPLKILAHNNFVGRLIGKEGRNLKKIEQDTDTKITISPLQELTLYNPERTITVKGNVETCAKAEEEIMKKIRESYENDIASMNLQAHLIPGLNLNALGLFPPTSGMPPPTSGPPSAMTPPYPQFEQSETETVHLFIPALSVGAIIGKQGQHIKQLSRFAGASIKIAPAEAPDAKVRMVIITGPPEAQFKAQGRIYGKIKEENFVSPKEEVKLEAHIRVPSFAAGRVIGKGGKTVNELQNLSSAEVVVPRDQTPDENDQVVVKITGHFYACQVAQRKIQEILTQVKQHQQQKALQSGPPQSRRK
Chain of UniProt O00425 (O00425 whole entry): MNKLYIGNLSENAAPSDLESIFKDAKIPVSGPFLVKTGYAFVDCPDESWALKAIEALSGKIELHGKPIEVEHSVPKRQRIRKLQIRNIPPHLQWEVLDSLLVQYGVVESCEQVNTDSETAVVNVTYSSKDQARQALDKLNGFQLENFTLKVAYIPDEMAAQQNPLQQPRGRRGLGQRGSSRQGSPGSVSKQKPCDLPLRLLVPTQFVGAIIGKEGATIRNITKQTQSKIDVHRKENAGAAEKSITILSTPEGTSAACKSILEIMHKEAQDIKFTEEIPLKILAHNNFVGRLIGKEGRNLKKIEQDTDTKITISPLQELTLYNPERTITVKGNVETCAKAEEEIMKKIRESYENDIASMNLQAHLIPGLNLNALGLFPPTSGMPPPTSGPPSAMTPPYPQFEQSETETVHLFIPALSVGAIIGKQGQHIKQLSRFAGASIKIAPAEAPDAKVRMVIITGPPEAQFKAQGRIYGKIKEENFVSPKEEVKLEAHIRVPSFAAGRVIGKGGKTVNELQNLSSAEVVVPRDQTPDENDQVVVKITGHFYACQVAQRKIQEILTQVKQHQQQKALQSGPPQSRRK
Chain of IMP3 RRM1-2 (chain, as listed by the source): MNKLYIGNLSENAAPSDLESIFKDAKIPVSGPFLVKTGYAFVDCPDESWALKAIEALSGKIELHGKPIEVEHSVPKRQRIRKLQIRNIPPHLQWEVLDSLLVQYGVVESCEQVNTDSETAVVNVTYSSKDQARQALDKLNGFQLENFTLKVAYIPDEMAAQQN

| Sequence | 6-mer SELEX enrichment z-score [1] | 6-mer SELEX enrichment z-score [2] | 6-mer SELEX enrichment z-score [3] | 6-mer SELEX enrichment z-score [4] | 6-mer SELEX enrichment z-score [5] |
| --- | --- | --- | --- | --- | --- |
| GCTTTT | 0.26 | 0.382 | 0.162 | 0.368 | 0.473 |
| CGAATC | -0.892 | -0.162 | -0.263 | -0.87 | -1.05 |
| GGCTTA | 0.348 | 0.351 | 0.363 | 0.295 | 0.934 |
| AAATTA | 1.08 | -0.945 | -0.574 | 1.13 | 2.51 |
| TCCAAT | 0.026 | 0.165 | -0.239 | -0.102 | -0.235 |
| TACTGT | 0.552 | 0.009 | -0.022 | 0.424 | 0.414 |
| CTTAGC | -0.459 | 0.106 | -0.313 | -0.368 | -0.394 |
| GCAATA | 1.2 | -0.026 | 0.868 | 1.16 | 1.53 |
| AAGGTG | -0.045 | -0.321 | -0.156 | -0.034 | 0.23 |
| TAAGGT | 0.089 | 0.109 | 0.013 | 0.083 | 0.418 |
| TAGGGG | 0.869 | 0.249 | 0.422 | 1.05 | 1.14 |
| AGTGAG | -0.007 | -0.391 | -0.167 | -0.119 | 0.084 |
| AGGATC | 0.205 | 0.635 | 0.162 | 0.017 | 0.183 |
| GACGGT | -0.251 | -0.232 | -0.081 | -0.277 | -0.2 |
| CGCACC | -0.085 | -0.315 | 0.426 | -0.092 | -1.01 |
| TAGGCG | 0.104 | 0.357 | 0.439 | 0.179 | 0.398 |
| GCCCCC | 1 | -0.783 | 0.081 | 1.87 | -0.309 |
| ATACCT | -1.03 | -0.433 | -1.04 | -1.03 | -1.11 |
| CTCACA | 0.377 | 1.78 | 0.85 | 0.575 | -0.305 |
| GGCTAC | 0.031 | 0.473 | 0.55 | 0.1 | 0.238 |

| Sequence | 6-mer SELEX enrichment z-score [1] | 6-mer SELEX enrichment z-score [2] | 6-mer SELEX enrichment z-score [3] | 6-mer SELEX enrichment z-score [4] | 6-mer SELEX enrichment z-score [5] |
| --- | --- | --- | --- | --- | --- |
| CCGCGG | -0.19 | -0.154 | 0.447 | -0.056 | -0.332 |
| TCTTAA | 0.12 | -0.051 | -0.124 | 0.119 | 0.29 |
| GATGCC | -1.09 | -0.705 | -0.975 | -0.956 | -1.12 |
| GCCGCT | 0.171 | 0.076 | 0.282 | 0.323 | -0.005 |
| GCAACA | 0.868 | 1.77 | 2.34 | 0.806 | 0.434 |
| ACGGCG | 0.003 | 0.127 | 1.13 | -0.165 | 0.134 |
| AGGTAA | -0.165 | -0.267 | -0.247 | -0.276 | 0.12 |
| GAAGTT | -0.107 | -0.241 | -0.404 | -0.156 | 0.07 |
| GCTGTC | 0.15 | 0.274 | 0.373 | 0.112 | -0.005 |
| TTCGTC | 0.01 | 0.398 | 0.24 | -0.04 | 0.039 |
| CTGGCT | -0.047 | 0.322 | 0.167 | 0.014 | 0.052 |
| ACAGGG | 0.957 | 0.462 | 0.927 | 1.1 | 1.05 |
| GGCTAA | 0.152 | 0.051 | 0.182 | 0.043 | 0.601 |
| GGCGAG | -0.301 | -0.124 | 0.57 | -0.181 | -0.05 |
| TGCTAA | 0.094 | -0.304 | -0.408 | -0.062 | 0.179 |
| TTGACT | -0.152 | -0.162 | -0.52 | -0.175 | -0.077 |
| GCGCTC | -0.442 | 0.369 | 0.546 | -0.264 | -0.373 |
| ATAGGA | 1.22 | 0.116 | 0.248 | 0.769 | 1.37 |
| CTCATG | -0.159 | 0.588 | 0.344 | -0.199 | -0.295 |
| TGTTCA | 0.593 | 0.305 | 0.379 | 0.45 | 0.501 |

| Sequence | 6-mer SELEX enrichment z-score [1] | 6-mer SELEX enrichment z-score [2] | 6-mer SELEX enrichment z-score [3] | 6-mer SELEX enrichment z-score [4] | 6-mer SELEX enrichment z-score [5] |
| --- | --- | --- | --- | --- | --- |
| GCGTCC | -0.934 | 0.224 | 0.571 | -0.734 | -0.762 |
| GAGTCA | 0.095 | -0.08 | 0.373 | -0.018 | 0.042 |
| AAGGAG | 0.565 | -0.855 | -0.228 | 0.393 | 0.75 |
| TCTCAG | -0.377 | 0.527 | 0.313 | -0.249 | -0.272 |
| GACTGT | -0.117 | -0.403 | -0.401 | -0.134 | -0.13 |
| TTCAGG | 0.476 | 0.744 | 0.666 | 0.404 | 0.499 |
| AGATCC | -0.464 | -0.455 | -0.696 | -0.46 | -0.657 |
| GGCAAT | 1.33 | 0.435 | 1.32 | 0.852 | 1.71 |
| CTTCAG | 0.129 | 0.772 | 0.446 | 0.141 | 0.002 |
| CGCCAC | 0.518 | -0.022 | 0.717 | 0.403 | -0.42 |
| GCTGGG | 0.221 | 0.232 | 0.441 | 0.421 | 0.307 |
| CTTAGG | -0.116 | 0.432 | 0.008 | -0.09 | 0.066 |
| CTAAAA | -0.883 | -1.87 | -1.99 | -0.829 | -0.297 |
| ATTGGC | 0.344 | 0.286 | 0.42 | 0.209 | 0.358 |
| GTTCCT | 0.085 | 0.228 | -0.107 | -0.008 | -0.044 |
| GGGAGC | 0.005 | -0.112 | 0.348 | 0.218 | 0.178 |
| GAGTTG | -0.353 | 0.049 | -0.272 | -0.317 | -0.144 |
| AAAGTA | -0.404 | -1.12 | -1.07 | -0.646 | 0.042 |
| GTACAC | -0.371 | 0.194 | 0.377 | -0.506 | -0.767 |
| TCTCCA | 0.149 | 0.438 | 0.169 | 0.165 | -0.212 |
